# The other results are listed elsewhere or left out. Sequences were assembled here from the parent chain. Inactive controls read about 0.05.
# B1: TEV protease; numbered along this chain (parent)
# chain: MGESLFKGPRDYNPISSSICHLTNESDGHTTSLYGIGFGPFIITNKHLFRRNNGTLVVQSLHGVFKVKDTTTLQQHLVDGRDMIIIRMPKDFPPFPQKLKFREPQREERICLVTTNFQTKSMSSMVSDTSCTFPSGDGIFWKHWIQTKDGQCGSPLVSTRDGFIVGIHSASNFTNTNNYFTSVPKNFMELLTNQEAQQWVSGWRLNADSVLWGGHKVFMVKPEEPFQPVKEATQL
# Variants of: B1
# Assay: raw area under fraction-flipped curve 0-4 h after induction (AUC4h, not background-subtracted), DNA-recorder readout of cleavage of the substrate (dimensionless); higher = more cleavage of the substrate by the protease variant
# Settings: temperature: 34 °C; time window: 0-4 h after rhamnose induction
# 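Also: Bxb1 expression induced with 0.2% (w/v) L-rhamnose at OD600 near 0.5, cultures sampled hourly, flipped fraction per protease–substrate barcode pair counted by paired-end Illumina sequencing.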
Variant,area with substrate ENLYFCS,area with substrate ENLYFDS,area with substrate ENLYFES,area with substrate ENLYFFS,area with substrate ENLYFIS,area with substrate ENLYFKS,area with substrate ENLYFLS,area with substrate ENLYFMS,area with substrate ENLYFNS,area with substrate ENLYFPS,area with substrate ENLYFRS,area with substrate ENLYFTS,area with substrate ENLYFVS,area with substrate ENLYFWS,area with substrate ENLYFYS,area with substrate ENLYFGS,area with substrate ENLYFSS,area with substrate ENLYFHS
Q198I,0.0757,0.0619,0.0731,0.0824,0.0585,0.0535,0.0742,0.0654,0.053,0.058,0.0562,0.0631,0.0496,0.0598,0.0469,,,
I139A,0.075,0.0682,0.0661,,0.052,0.059,,0.073,0.0634,0.0533,0.0539,0.0488,0.0562,0.0427,0.0636,0.0545,0.0403,
F163R,0.0685,0.0447,,0.14,0.0512,0.062,0.0557,0.0737,,0.0684,0.0374,0.0745,,,,,0.0645,
F163V,0.0423,0.054,,0.0315,0.0593,,0.0551,0.0616,0.0931,,0.0765,,,0.0658,,0.0643,0.0612,0.07
D137L,,0.0561,,,0.0803,0.0631,,0.0601,0.0635,0.0561,0.0669,0.059,,0.0613,,0.074,,
T176Y,0.0685,,0.0517,0.0709,0.0541,,0.0592,0.0579,0.0582,0.06,0.0524,0.0538,,0.0618,,0.0609,0.051,
F117H,0.0593,0.05,0.0624,0.0634,0.0542,0.0682,0.0558,0.0822,,0.0573,0.0599,0.0665,0.0653,0.0548,0.0583,,0.0597,0.0657
E103Q,0.0648,,0.0568,0.0714,0.0553,0.0478,0.043,0.0622,0.0471,0.0661,0.0599,0.0532,,0.0608,,0.0672,,0.0644
E103C,0.067,0.0629,0.0579,0.0732,0.0502,0.0329,,0.0819,0.0545,0.0647,,0.0756,,,,,,
M125N,0.0726,0.0636,0.0756,0.0719,0.0555,0.0531,0.0616,,0.0644,0.0667,0.0615,0.0599,0.063,0.0679,0.0715,0.0598,0.0579,0.0604
P94I,,0.0479,0.0556,0.0811,0.0582,,,0.1,0.0752,0.0471,,0.0559,0.0516,0.0698,0.0724,,0.0737,0.0577
K230V,0.0619,,0.0672,0.0615,0.049,0.0971,,0.0745,,0.0581,0.0605,0.0649,,0.065,0.0494,,0.0642,0.0598
F49V,,0.0427,0.0596,,0.0531,0.0563,0.0593,0.0609,0.051,0.0597,0.0417,0.031,,0.0549,,0.0888,0.0477,0.0818
S60L,,0.0559,0.0653,,0.0488,0.0633,,0.0627,0.0638,0.0543,,,0.0569,0.0643,,,0.0503,
L73P,0.0449,,0.0368,0.0598,0.0493,0.0558,,0.0621,0.0525,0.0524,0.0603,0.0562,0.0439,,0.0514,0.0609,0.0605,0.0971
V57L,0.0623,0.0455,0.045,0.0737,0.0539,0.06,,0.0663,0.0066,0.0422,0.0665,,,0.0598,0.0581,,,0.0547
M83T,0.0588,0.0672,0.0659,,0.0554,0.0515,,0.0534,0.0583,0.057,0.0585,0.0562,0.0648,0.0561,,,0.0682,0.0213
Q74V,0.0614,0.0552,0.0579,0.0705,0.0555,,0.0785,0.064,0.0477,0.0545,,0.0316,0.0534,0.0468,0.0404,,0.0631,0.0602
D161K,0.0465,0.0516,0.0745,0.0691,0.0533,,0.0414,0.0566,0.0536,0.0582,0.059,0.0529,0.0514,0.0575,0.0389,0.0435,0.0543,
R102A,0.0547,0.0623,0.058,0.0636,0.046,0.0532,,0.0457,0.0457,0.0515,0.0558,0.0466,0.0533,0.0509,,0.0595,0.0378,0.0594
Q105C,0.0463,0.0495,0.0682,0.0968,0.0532,0.0713,0.0559,0.0707,0.0626,0.0625,0.0565,0.069,0.049,0.0589,,,,
I84W,0.0578,,0.0585,0.0575,0.0571,0.0401,0.0602,0.0411,0.0631,0.0555,,0.058,0.059,0.0409,0.0433,0.0558,0.0563,0.0558
V157A,0.103,0.0588,0.0524,0.0694,0.067,0.0644,0.0467,0.0604,0.0605,0.0708,,,,0.0767,0.051,0.0665,0.0542,0.0535
N186M,0.0584,0.0752,0.0682,0.0764,0.0536,0.0763,,0.0735,0.0608,0.0492,,0.0528,0.0843,0.0695,,,0.0483,
N186L,0.0598,0.0461,0.0482,0.0472,0.0599,0.0627,,0.0675,0.0583,0.0586,0.061,0.0588,0.11,0.0623,0.0585,,0.063,0.0762
V78C,0.0665,0.055,0.0625,0.0674,0.0539,0.0704,,0.0697,,0.0561,0.0304,,0.0503,0.0545,,,0.0517,

Variant,area with substrate ENLYFCS,area with substrate ENLYFDS,area with substrate ENLYFES,area with substrate ENLYFFS,area with substrate ENLYFIS,area with substrate ENLYFKS,area with substrate ENLYFLS,area with substrate ENLYFMS,area with substrate ENLYFNS,area with substrate ENLYFPS,area with substrate ENLYFRS,area with substrate ENLYFTS,area with substrate ENLYFVS,area with substrate ENLYFWS,area with substrate ENLYFYS,area with substrate ENLYFGS,area with substrate ENLYFSS,area with substrate ENLYFHS
V78F,0.0716,0.0595,0.0625,0.0631,0.0563,0.0454,,0.0668,,0.0613,,,,,0.0552,,0.0555,0.0492
V78S,0.0697,,0.0572,0.0636,0.0467,0.0587,0.0735,0.0598,0.0706,0.0614,0.0513,,0.0612,0.0483,0.0513,,0.0869,
F133E,0.0413,0.063,0.0614,0.0631,0.0393,0.0675,,0.0605,0.0734,,0.0584,0.044,0.0654,0.0578,0.0591,,0.079,0.0646
F133N,0.0544,,,0.0702,0.0563,,0.0764,0.0773,0.058,0.0707,,0.0601,,,,0.0698,,
Q194R,0.0332,,0.0622,0.0697,0.0528,0.0643,,0.0599,0.0873,0.0587,,0.0583,,,0.0515,0.0651,,0.0591
H143R,0.0619,,0.0717,0.0566,0.0586,0.0494,0.0507,0.06,0.0557,0.0578,0.0549,,0.026,0.0601,0.0608,0.0622,0.0598,0.0401
S201K,0.0537,,0.0298,,0.0662,,,,,0.0654,,0.101,,,,,,
L205W,0.0466,0.0564,,0.0641,,,,0.0575,,0.0533,0.0557,,0.0529,0.0603,0.0597,,,
K142S,0.0612,,0.0573,0.0768,0.0591,0.0575,,,0.0685,0.0601,0.067,0.0614,0.0556,0.0676,0.0607,,0.073,
T233K,0.0685,,0.0599,0.0688,0.0598,,0.0444,,0.0662,0.0712,,0.0649,,,0.0572,,0.0657,
T181M,0.0688,0.056,0.064,0.0695,0.0433,0.0556,0.0834,0.0606,0.0584,0.0463,,0.0508,,0.062,0.0648,0.0615,0.0511,
T70S,,0.0609,0.0561,0.0551,,0.0618,,0.0713,0.0539,0.0829,0.0632,,0.0709,,0.0635,0.0707,0.0556,0.0533
T114F,0.0533,,,0.0862,0.0613,0.0555,0.0576,0.0711,0.059,0.0601,0.0071,,0.0291,,0.0762,0.0882,0.0949,
V126M,0.0681,0.0507,0.0613,0.0645,0.0544,0.0652,0.0592,0.0741,0.0628,0.0742,0.0608,0.0594,,0.057,0.0742,,0.0578,0.0366
V126F,0.0588,,0.0402,0.084,0.0599,0.0712,,0.0938,0.0568,0.0533,0.059,,0.0683,0.0485,0.0344,0.0553,,0.0257
V126N,0.0736,,0.0592,0.0671,0.0664,0.0593,0.061,0.0699,0.0866,0.054,0.0474,0.0483,0.0554,0.0468,0.0536,0.0733,0.0896,0.0632
I85P,0.0368,0.0388,0.0256,0.0428,0.038,0.0425,0.0394,,0.0401,0.0281,,,0.0175,0.0406,0.0473,0.0412,,0.0408
K185T,0.0405,0.0684,0.0536,0.0635,0.0601,0.0651,0.0422,0.0527,,0.0604,,0.0605,,0.0604,0.0661,,,0.046
E224F,0.057,0.0578,0.0391,0.0683,0.041,0.0329,,0.0613,0.0856,0.0496,0.0578,0.0655,0.0529,0.0594,0.0699,,,
N175F,0.0564,0.0353,0.083,,0.0499,,0.0588,0.0718,0.0617,0.0544,0.0618,0.0588,,0.0329,,0.0802,0.0596,0.0717
V220P,0.0475,0.0446,0.0629,0.0602,0.0563,0.064,0.0579,0.0609,0.0726,0.0573,0.0534,0.0646,0.0287,0.0895,0.0268,0.0467,0.0614,0.0557
W203Y,0.0579,,0.0557,,0.0629,,,,0.0579,,0.0593,,0.0589,0.0702,0.0554,,,0.0604
C111T,0.065,0.0517,,0.0944,0.0617,0.0753,,0.0905,0.0654,0.0592,0.0514,,,0.0486,0.0302,0.0602,0.06,0.0707
C111L,,0.0431,,0.0683,0.0639,0.0794,,0.0645,,0.0584,0.0423,,,,,,0.0471,
V217A,0.068,0.0362,0.056,,0.0603,0.0391,0.0591,0.0574,0.0695,0.0546,,,,,0.0576,0.0652,0.0447,0.0495
D91P,0.0623,,0.0254,0.0744,0.0583,0.0641,0.0498,0.0623,,0.054,0.0437,,,0.0732,0.0558,,0.0487,

# Reference: the supplement of paper PMC12217912
